In the supplement of paper PMC8512760:
The list shows a part of the results. Most values come without repeats; read them as rough.

Key:
Assay in all cases: cell viability relative to vehicle (% of vehicle); basal-like triple-negative breast cancer lines; higher = less cytotoxic
Conditions in all cases: 10 µM; 72 h
[1] = system: HCC-1143
[2] = system: HCC-1187
[3] = system: MDA-468
[4] = system: SUM-149
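Also: stably firefly luciferase-GFP labeled cells in 96-well plates, viability read as luciferase photon flux after d-luciferin addition, treated wells normalized to vehicle wells, single-dose high-throughput screen.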

SMILES | cell viability [1] | cell viability [2] | cell viability [3] | cell viability [4]
Nc1nc(N)nc(-c2cc(Cl)ccc2Cl)n1 [Irsogladine] | 79.9 | 91.4 | 121 | 103
CNC(=O)c1ccc(N2C(=S)N(c3ccc(C#N)c(C(F)(F)F)c3)C(=O)C2(C)C)cc1F [MDV3100 (Enzalutamide)] | 88.2 | 87 | 82.3 | 123
CN(C)CCOc1ccc(C(=C(CCCl)c2ccccc2)c2ccccc2)cc1.O=C(O)CC(O)(CC(=O)O)C(=O)O [Toremifene Citrate] | 103 | 99.8 | 102 | 91.6
CC(C)C1=CC(=C2NNC(=O)N2c2ccc3c(ccn3C)c2)C(=O)C=C1O [Ganetespib (STA-9090)] | 51.1 | 72.9 | 45.8 | 46.5
O=C([O-])c1cc(=O)c2c(OCC(O)COc3cccc4oc(C(=O)[O-])cc(=O)c34)cccc2o1.[Na+].[Na+] [Cromolyn sodium] | 74.5 | 83.9 | 100 | 106
CC12CCC3=C4CCC(=O)C=C4CCC3C1CCC2(O)CC#N (centres undefined) [Dienogest] | 75.6 | 107 | 99.1 | 112
Cc1ccc(O)c(C(CCN(C(C)C)C(C)C)c2ccccc2)c1.O=C(O)C(O)C(O)C(=O)O (centres undefined) [Tolterodine tartrate] | 93.4 | 93.1 | 112 | 107
Nc1ncn(C2OC(CO)C(O)C2O)c(=O)n1 (centres undefined) [5-Azacytidine] | 53 | 73.6 | 51.1 | 85.7
CN1CCC(=C2c3ccccc3CCn3c(C=O)cnc32)CC1 [Alcaftadine] | 101 | 102 | 113 | 121
COC(=O)N=NC=C1C=[N+]([O-])c2ccccc2N1O [Carbadox] | 81.2 | 94.9 | 84.3 | 104
CC(C)c1nc(CN(C)C(=O)NC(CCN2CCOCC2)C(=O)NC(CCC(Cc2ccccc2)NC(=O)OCc2cncs2)Cc2ccccc2)cs1 (centres undefined) [Cobicistat (GS-9350)] | 76.6 | 86.3 | 94.3 | 96.8
O=C(NN=Cc1ccc([N+](=O)[O-])o1)c1ccc(O)cc1 [Nifuroxazide] | 74.2 | 76.3 | 66.6 | 101
Cc1[nH]c(=O)c(C#N)cc1-c1ccncc1 [Milrinone] | 83.6 | 96.1 | 100 | 187
Nc1ccc(S(=O)(=O)Nc2ncccn2)cc1 [Sulfadiazine] | 79.6 | 115 | 119 | 106
C[C@H]1O[C@@H](O[C@H]2[C@@H](O)C[C@H](O[C@H]3[C@@H](O)C[C@H](O[C@H]4CC[C@@]5(C)[C@H](CC[C@@H]6[C@@H]5C[C@@H](O)[C@]5(C)[C@@H](C7=CC(=O)OC7)CC[C@]65O)C4)O[C@@H]3C)O[C@@H]2C)C[C@H](O)[C@@H]1O [Digoxin] | 26.4 | 25.3 | 31.5 | 30
Cc1ncc(C[n+]2csc(CCO)c2C)c(N)n1.Cl.[Cl-] [Thiamine HCl (Vitamin B1)] | 70.2 | 87 | 107 | 63.1
COc1cc(OC)c(C(=O)CCCN2CCCC2)c(OC)c1.Cl [Buflomedil HCl] | 77.2 | 82.4 | 107 | 103
S=C(NCc1ccc2c(c1)OCO2)N1CCN(c2ncnc3c2oc2ccccc23)CC1 [Amuvatinib (MP-470, HPK 56)] | 73.5 | 84.8 | 71.4 | 114
C[N+]1(C)CCC(OC(=O)C(O)(c2ccccc2)C2CCCC2)C1.[Br-] (centres undefined) [Glycopyrrolate] | 66.9 | 81 | 124 | 113
NC(=O)C1CCCc2c1[nH]c1ccc(Cl)cc21 (centres undefined) | 98.9 | 102 | 63.5 | 146
CC(CCc1ccccc1)NCC(O)c1ccc(O)c(C(N)=O)c1.Cl (centres undefined) [Labetalol HCl] | 94.6 | 114 | 119 | 80.4
C=CC(=O)N1CCC(Oc2cc3c(Nc4ccc(Cl)c(Cl)c4F)ncnc3cc2OC)CC1 [Poziotinib] | 49.9 | 40.8 | 52.9 | 34.6
COc1ccc(C=Cc2cc(OC)c(OC)c(OC)c2)cc1OP(=O)([O-])[O-].[Na+].[Na+] [Fosbretabulin (Combretastatin A4 Phosphate (CA4P)) Disodium] | 58.8 | 44.8 | 83.3 | 162
C=C1CCN(C(C)C(O)(Cn2cncn2)c2ccc(F)cc2F)CC1 (centres undefined) [Efinaconazole] | 97.8 | 94.2 | 104 | 108
CS(=O)(=O)O.N#CC1(c2ccc(NC(=O)c3cccnc3NCc3ccncc3)cc2)CCCC1 [Apatinib] | 92 | 113 | 125 | 133
Clc1ccc(CSC(Cn2ccnc2)c2ccc(Cl)cc2Cl)cc1.O=[N+]([O-])O (centres undefined) [Sulconazole Nitrate] | 59.8 | 28.6 | 75.7 | 123

SMILES | cell viability [1] | cell viability [2] | cell viability [3] | cell viability [4]
CCOc1cc2ncc(C#N)c(Nc3ccc(F)c(Cl)c3)c2cc1NC(=O)C=CCN(C)C [Pelitinib (EKB-569)] | 101 | 69.1 | 68.5 | 57.5
COc1cc(C=CC(=O)N2CCN(CC(=O)N3CCCC3)CC2)cc(OC)c1OC.O=C(O)C=CC(=O)O [Cinepazide maleate] | 72 | 76.9 | 112 | 130
NC(=O)N1CCC(CC(=O)N2CCC(C3c4ncc(Br)cc4CCc4cc(Cl)cc(Br)c43)CC2)CC1 (centres undefined) [Lonafarnib] | 28.4 | 69.9 | 28.8 | 155
CN1C(C(=O)Nc2ccccn2)=C(O)c2sc(Cl)cc2S1(=O)=O [Lornoxicam] | 78.8 | 87.8 | 111 | 108
C1N2CN3CN1CN(C2)C3 [Methenamine] | 78.6 | 96.4 | 94.6 | 104
CN(C)C(=O)COC(=O)Cc1ccc(OC(=O)c2ccc(N=C(N)N)cc2)cc1.CS(=O)(=O)O [Camostat Mesilate] | 80.7 | 87.8 | 94.6 | 82.4
N#CCC(C1CCCC1)n1cc(-c2ncnc3[nH]ccc23)cn1 (centres undefined) | 79.4 | 105 | 90.7 | 89.7
NC(CO)(CO)CO.O=C(c1ccccc1)c1ccc2n1CCC2C(=O)O (centres undefined) [Ketorolac tromethamine salt] | 93.3 | 94.6 | 135 | 130
CO[C@H]1O[C@@H]2OC3(C)CC[C@H]4[C@H](C)CC[C@@H]([C@H]1C)[C@@]24OO3 [Artemether] | 71.6 | 73.9 | 94.8 | 102
Cc1ncc([N+](=O)[O-])n1CCO [Metronidazole] | 73.6 | 89.5 | 102 | 102
Cc1ccc(Nc2nccc(N(C)c3ccc4c(C)n(C)nc4c3)n2)cc1S(N)(=O)=O.Cl [Pazopanib Hydrochloride] | 81.8 | 97.8 | 103 | 95.2
Nc1nc(CC(=O)Nc2ccc(CCNCC(O)c3ccccc3)cc2)cs1 (centres undefined) [Mirabegron (YM178)] | 86.4 | 121 | 137 | 100
CC(Cc1ccc(O)c(O)c1)(NN)C(=O)O (centres undefined) [Carbidopa] | 130 | 101 | 88.5 | 106
CC(=O)C1CCC2C3CC=C4CC(O)CCC4(C)C3CCC12C (centres undefined) [Pregnenolone] | 73.5 | 90.7 | 104 | 89.2
CN1CCCC[C@H]1CCN1c2ccccc2Sc2ccc(S(C)=O)cc21.O=S(=O)(O)c1ccccc1 (some centres undefined) [Mesoridazine Besylate] | 79.3 | 86.3 | 116 | 145
CC(C)c1cc(C(=O)N2Cc3ccc(CN4CCN(C)CC4)cc3C2)c(O)cc1O | 47.7 | 39.3 | 38.1 | 56.6
CC1(C)Cc2c(-c3ccccc3)c(-c3ccc(Cl)cc3)c(CC(=O)O)n2C1 [Licofelone] | 88.8 | 88.5 | 114 | 115
CC(=O)SCC(Cc1ccccc1)C(=O)NCC(=O)OCc1ccccc1 (centres undefined) [Racecadotril] | 79.4 | 82.8 | 93.1 | 104
Cl.c1ccc(CC2=NCCN2)cc1 [Tolazoline HCl] | 73.9 | 86.5 | 124 | 104
CCC1OC(=O)C(C)C(OC2CC(C)(OC)C(O)C(C)O2)C(C)C(OC2OC(C)CC(N(C)C)C2O)C(C)(O)CC(C)CN(C)C(C)C(O)C1(C)O (centres undefined) [Azithromycin] | 118 | 118 | 118 | 125
COCCOC(=O)C1=C(C)NC(C)=C(C(=O)OCC=Cc2ccccc2)C1c1cccc([N+](=O)[O-])c1 (centres undefined) [Cilnidipine] | 85.1 | 86.6 | 82.7 | 101
O=C(NCCO[N+](=O)[O-])c1cccnc1 [Nicorandil] | 110 | 97.1 | 101 | 110
CN(CC/C=C1C2=CC=CC=C2C=CC3=CC=CC=C3\1)C.Cl [Cyclobenzaprine HCl] | 72.6 | 87.8 | 114 | 77.3
CC1(C)OC2COC3(COS(N)(=O)=O)OC(C)(C)OC3C2O1 (centres undefined) [Topiramate] | 112 | 94.8 | 91.6 | 117
COc1nc(C)cnc1NS(=O)(=O)c1cccnc1-c1ccc(-c2nnco2)cc1 [Zibotentan (ZD4054)] | 84.2 | 82.7 | 86.8 | 115
